The values that follow come from publication PMC4336329 (PLoS ONE, 2015).

Screen size: about 310,000 compounds; about 2,200 (0.71%) showed an effect of 50% or more. Effects have a minus sign here. The list shows a part of the results.

The target of the assay is human ether-à-go-go-related gene (hERG) potassium channel (human, UniProt Q12809). Kind of assay: primary screen, population patch clamp on CHO cells stably expressing hERG.
human ether-à-go-go-related gene (hERG) potassium channel, sequence (Q12809 whole entry, looked up): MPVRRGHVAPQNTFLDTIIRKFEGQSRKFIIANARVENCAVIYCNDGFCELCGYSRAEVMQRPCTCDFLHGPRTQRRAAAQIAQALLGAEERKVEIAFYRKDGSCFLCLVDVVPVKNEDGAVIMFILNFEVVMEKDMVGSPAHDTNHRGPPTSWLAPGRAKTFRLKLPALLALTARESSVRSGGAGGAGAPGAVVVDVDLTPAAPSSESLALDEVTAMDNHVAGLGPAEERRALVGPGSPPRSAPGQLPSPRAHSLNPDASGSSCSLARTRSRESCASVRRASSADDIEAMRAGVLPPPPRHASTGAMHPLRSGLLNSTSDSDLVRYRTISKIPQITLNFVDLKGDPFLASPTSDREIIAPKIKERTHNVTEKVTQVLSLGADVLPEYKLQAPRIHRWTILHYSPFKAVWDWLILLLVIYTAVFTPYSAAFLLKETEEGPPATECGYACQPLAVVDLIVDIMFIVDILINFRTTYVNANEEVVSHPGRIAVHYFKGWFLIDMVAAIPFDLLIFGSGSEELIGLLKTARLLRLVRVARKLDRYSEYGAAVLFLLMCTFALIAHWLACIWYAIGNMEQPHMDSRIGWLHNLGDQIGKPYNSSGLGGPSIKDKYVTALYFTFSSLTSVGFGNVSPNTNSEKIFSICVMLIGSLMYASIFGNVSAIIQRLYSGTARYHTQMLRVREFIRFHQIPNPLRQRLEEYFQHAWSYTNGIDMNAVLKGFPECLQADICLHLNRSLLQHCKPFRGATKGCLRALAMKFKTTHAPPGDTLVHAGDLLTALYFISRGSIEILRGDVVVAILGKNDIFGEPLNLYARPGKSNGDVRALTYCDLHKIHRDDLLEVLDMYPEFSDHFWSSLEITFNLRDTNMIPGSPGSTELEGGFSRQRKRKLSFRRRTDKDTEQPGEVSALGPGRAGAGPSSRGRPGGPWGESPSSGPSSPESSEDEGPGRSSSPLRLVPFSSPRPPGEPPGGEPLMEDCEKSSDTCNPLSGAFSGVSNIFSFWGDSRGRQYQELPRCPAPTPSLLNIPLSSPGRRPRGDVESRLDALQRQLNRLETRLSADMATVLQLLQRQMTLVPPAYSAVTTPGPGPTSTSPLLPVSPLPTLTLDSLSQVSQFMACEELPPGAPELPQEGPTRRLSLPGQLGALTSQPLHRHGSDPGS
In the case of `Cc1cc(C(=O)COC(=O)c2n[nH]c3ccccc23)c(C)n1CC1CCCO1` (stereo not drawn), the “hERG current change (%, negative = inhibition) at 1uM” value was -0.479%.
As for `Cc1nc2sc3c(=O)[nH]nnc3c2c(C)c1Br`, the “hERG current change (%, negative = inhibition) at 1uM” value amounted to 15.6%.
For the compound `Cc1nn(C)c(Cl)c1CN1CCN(C2CCCC2)C(CCO)C1` (stereo not drawn), the “hERG current change (%, negative = inhibition) at 1uM” value worked out at 2.28%.
With `COc1ccc(-n2c(Cn3nnc4ccccc43)n[nH]c2=S)cc1`, the “hERG current change (%, negative = inhibition) at 1uM” value was found to be 11.9%.
Regarding `Cc1nnc(NCc2ccco2)c2ccccc12`, the “hERG current change (%, negative = inhibition) at 1uM” value was found to be 0.744%.
Next, `COC(=O)C1=C(C(=O)OC)[C@@H]2Nc3ccccc3[C@@]23C[C@@H](C(=O)OC)N(C(=O)CC(C)C)C3=N1`: 16.1%.
Next, `O=c1cc(-c2ccccc2)nc(/C=C/c2ccccc2)[nH]1`: 8.79%; `O=C(Nc1nnc(SCc2ccc(Cl)cc2)s1)c1cnccn1`: -3.08%.
In the case of `COc1ccc(C(CNC(=O)c2ccc(NS(=O)(=O)c3cccc([N+](=O)[O-])c3)cc2)N2CCOCC2)cc1` (stereo not drawn), the “hERG current change (%, negative = inhibition) at 1uM” value came out at 15.9%.
For `CC1CCCN(C(=O)C2CCN(S(=O)(=O)c3cccc4nsnc34)CC2)C1` (stereo not drawn) the value was 3.62%; for `C/C(=N\Nc1nc(-c2cc(C)ccc2C)cs1)c1cc2c(ccc3ccccc32)oc1=O`, 18%.
For the compound `CN(CC(=O)Nc1ccccc1Br)C(=O)CCC1CCCC1`, the “hERG current change (%, negative = inhibition) at 1uM” value is 11.8%.
For `O=C(/C=C/c1c(F)cccc1Cl)c1ccc(F)cc1`, the “hERG current change (%, negative = inhibition) at 1uM” value is listed as 17.6%.
For `CC(C)c1ccc(CNc2ccc3c(c2)ncn3C)cc1` the value was 21.4%; for `O=C(NCc1nnc(SCC(=O)N2CCCCCC2)o1)c1ccco1`, 12.2%; for `O=C(NC1CCCC1)C(c1ccco1)N(C(=O)c1ccco1)c1ccc(F)cc1` (stereo not drawn), 9.8%.
Next, `CS(=O)(=O)NCCSc1cc(C(F)(F)F)nc2ccccc12`: 16.3%; `CCC(C)(C)c1ccc(Oc2cccc(C(=O)O)c2)cc1`: 5.05%.
For `Cc1ccc(C(=O)N2CCN(S(=O)(=O)c3sc(C(=O)O)c(C)c3C(=O)O)CC2)s1` the value was 17.5%.
On to `O=S(=O)(Cc1ccccc1)NCC1CCCN(Cc2ccc3nonc3c2)C1` (stereo not drawn), for which the “hERG current change (%, negative = inhibition) at 1uM” value is 3.65%.
For `Cc1c(N=C2NC(=O)/C(=C/c3cccc([N+](=O)[O-])c3)S2)c(=O)n(-c2ccccc2)n1C` the value was 12.1%; for `O=C(Cn1c(CC(=O)N2CCCC2)nc2ccccc21)NCc1ccccc1`, 2.83%; for `CC(C)(C)OC(=O)N1CCCC1C(=O)N1CCc2ccccc21` (stereo not drawn), 15.6%.
Next, `O=C(NCc1cccs1)C1CCCN1C(=O)NC1CCCCC1` (stereo not drawn): 17.6%.
